{"sequences": {"note": "Chains of the proteins cited; added tags and fusions are not shown. Lines headed by an entry give the natural chain unless they say otherwise; changes in a name come on top. Residues count along the entry.", "UniProt Q13418": "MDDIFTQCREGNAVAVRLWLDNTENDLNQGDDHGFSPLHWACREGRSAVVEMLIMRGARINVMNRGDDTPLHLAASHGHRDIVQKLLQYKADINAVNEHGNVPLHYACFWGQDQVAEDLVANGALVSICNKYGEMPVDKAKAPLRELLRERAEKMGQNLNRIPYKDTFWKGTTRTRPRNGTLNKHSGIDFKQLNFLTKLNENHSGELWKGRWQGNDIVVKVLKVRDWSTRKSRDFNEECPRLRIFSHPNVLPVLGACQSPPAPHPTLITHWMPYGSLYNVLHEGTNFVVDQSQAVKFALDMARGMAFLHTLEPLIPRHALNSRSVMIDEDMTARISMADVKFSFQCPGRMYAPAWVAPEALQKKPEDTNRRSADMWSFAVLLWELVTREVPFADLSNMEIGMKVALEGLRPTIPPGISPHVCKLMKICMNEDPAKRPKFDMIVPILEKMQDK", "ΔN-ILKv5 (ILK construct lacking amino acids 1-63)": "residues 64-452 of Q13418"}, "source": "paper PMC5053222", "assay_in_all_cases": "co-IP; mouse anti-v5 antibody cross-linked to protein G magnetic Dynabeads; cleared lysates of EpH4 cell lines stably expressing wt or mutant ILKv5, 1 h at room temperature; washed three times in 150 mM NaCl and two times in 500 mM NaCl wash buffer (10 mM Tris/Cl pH 7.5, 0.5 mM EDTA); immunoblot for αParvin, βParvin and PINCH", "key": {"[1]": {"target": "ΔN-ILKv5 (ILK construct lacking amino acids 1-63) (UniProt Q13418)"}, "[2]": {"target": "wild-type Integrin Linked Kinase with a C-terminal v5 tag (wtILKv5) (UniProt Q13418)"}, "ILKv5 E359K mutant": {"target": "ILKv5 E359K mutant (UniProt Q13418)"}}, "note": "These are yes or no findings as the source states them, for the method shown. In cells and extracts the contact can be indirect. Some entries that bind do so weakly or less than the wild type.", "data": [{"binder": "αParvin (protein, UniProt Q9EPC1 1-372) MATSPQKSPLVPKSPTPKSPPSRKKDDSFLGKLGGTLARRKKAKEVSEFQEEGMNAINLPLSPISFELDPEDTLLEENEVRTMVDPNSRNDPKLQELMKVLIDWINDVLVGERIIVKDLAEDLYDGQVLQKLFEKLESEKLNVAEVTQSEIAQKQKLQTVLEKINETLKLPPRSIKWNVDSVHAKNLVAILHLLVALSQYFRAPIRLPDHVSIQVVVVQKREGILQSRQIQEEITGNTEALSGRHERDAFDTLFDHAPDKLNVVKKTLITFVNKHLNKLNLEVTELETQFADGVYLVLLMGLLEGYFVPLHSFFLTPDSFEQKVLNVSFAFELMQDGGLEKPKPRPEDIVNCDLKSTLRVLYNLFTKYRNVE", "values": [{"measurement": "binding", "setting": "[1]", "result": "binds"}, {"measurement": "binding", "setting": "[2]", "result": "binds"}, {"measurement": "binding", "setting": "ILKv5 E359K mutant", "result": "no binding"}]}, {"binder": "βParvin (protein, UniProt Q9ES46 1-365) MSSAPPRSPTPRAPKMKKDESFLGKLGGTLARKKKTREVTDLQEEGKSAINSPMAPALVDIHPEDTQLEENEERTMIDPTSREDPKFKELVKVLLDWINDVLAEERIIVKQLEEDLYDGQVLQKLLEKLAHCKLNVAEVTQSEIGQKQKLQTVLEAVQDLLRPHGWPLRWNVDSIHGKNLVAILHLLVSLAMHFRAPIHLPEHVTVQVVVVRKREGLLHSSHISEELTTTTEIMMGRFERDAFDTLFDHAPDKLNLVKKSLITFVNKHLNKLNLEVTDLETQFADGVYLVLLLGLLEDYFVPLHNFYLTPDSFDQKVHNVAFAFELMLDGGLKKPKARPEDVVNLDLKSTLRVLYTLFTKYKDVE", "values": [{"measurement": "binding", "setting": "[2]", "result": "binds"}, {"measurement": "binding", "setting": "ILKv5 E359K mutant", "result": "no binding"}]}]}
